In all, about 48,000 compounds went through this assay and about 120 (0.25%) were called active. Inconclusive results (about 4%) are left out. The call rests on the fitted dose curve; in most records, active means well fitted activation curve with a large enough effect; inconclusive means small, poorly fitted or top-dose-only effect, or another doubt; inactive means no such curve, though single readings can be large or run the other way. The list shows a part of the results.
Assay: Primary qHTS for Identification of Small Molecule Activators of Huntingtin-Antisense Promoter Activity; further: nearly all actives have a fitted effect of over 55% in size
Conditions: HEK293 HTT-AS promoter firefly luciferase reporter, 24 h; series mostly up to 57.5 µM; activity change, positive = activation: at the top concentration
Method in brief: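 HEK293 luciferase promoter-reporter cells (2,500/well) plated 24 h, then compounds added at up to 57.5 uM final for 24 h at 37 °C. Firefly luminescence by Dual-Glo, normalized to vehicle (0%) and zero RLU (-100%).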

Activity change, positive = activation, inactive:
Cn1c(=O)c2c(nc(N3CCOCC3)n2Cc2ccc(Br)cc2)n(C)c1=O -16%
Cc1ccc(CN2CCN(C3CCNCC3)C(=O)C2=O)cc1 -2.26%
COc1ccc(NC(=O)C2CCN(c3ccc(Sc4ccc(C)cc4)nn3)CC2)c(OC)c1 -14.3%
O=C(CSc1ccc(-c2ccccn2)nn1)Nc1ccc(F)cc1F -12.8%
Cc1ccc(CNC(=O)CCNS(=O)(=O)c2cccc3nsnc23)cc1 -6.95%
CCCN(CCC)CC(O)Cn1cc(/C=C/C(=O)c2ccc(Br)cc2)c2ccccc21 (stereo not given) -8.58%
CCn1cc(C(=O)N(C)c2ccc(C(C)C)cc2)c2cc(OC)c(OC)cc2c1=O -30.4%
Cc1c(CCC(=O)N2CCCCC2)c(=O)oc2cc3occ(C(C)(C)C)c3cc12 -12.6%
Cc1ccc2nc(NC(=O)CSc3ncc(C(=O)Nc4ccc(F)cc4)c(=O)n3C)sc2c1 -3.83%
CCc1ccc(NC(=O)Cn2c(=O)n(-c3ccc(OC)cc3)c(=O)c3ccc(C(=O)NCc4ccc(C)cc4)cc32)cc1 -1.49%
COCCn1cc(C(=O)NCCCOC(C)C)c2c3ccccc3n(C)c2c1=O -13.1%
COc1ccc(CNC(=O)Cc2ccc(NC(=O)N3CCSc4ncccc43)cc2)cc1 -15.5%
Cc1ccc(Cc2nc3ccccc3nc2SCC(=O)N2CCN(c3ccc(F)cc3)CC2)cc1 3.18%
CCOC(=O)c1noc2nc(C)n(Cc3cccc([N+](=O)[O-])c3)c(=O)c12 9.84%
Cc1nnc(SCC(=O)NCc2ccccc2Cl)c2nn(-c3ccccc3)c(C)c12 -52.7%
CCc1ccc(-n2nc(C)c3c(C)cc(=O)n(CC(=O)Nc4ccc(F)cc4C)c32)cc1 1.2%
Cc1cc(C)c(Cn2c(C3CC(=O)N(c4ccc(F)cc4)C3)nc3ccccc32)c(C)c1 (stereo not given) -24.6%
CC(C)CCN(C(=O)Nc1ccccc1)C(C)c1cccs1 (stereo not given) -25.9%
CC(C)OC(=O)c1c(-c2ccccc2)c(-c2ccccc2)nn(C)c1=O -26.1%
CCOC(=O)c1ccc(NC(=O)CCn2ccc(C)n2)cc1 -2.45%
COc1cccc(NC(=O)CSc2nc(=O)n(Cc3ccncc3)c3c2CCC3)c1 -18.5%
CNS(=O)(=O)c1cn(CC(=O)Nc2ccc(C(C)=O)cc2)cc1S(=O)(=O)NC -4.52%
Cc1ccc(CN2CCN(C3CCN(C(=O)Nc4ccc(C)cc4Cl)CC3)C(=O)C2=O)cc1 -13%
CC(=O)N1CCc2cc(CNC(=O)c3ccccc3Br)ccc21 22.6%
CCCCNS(=O)(=O)c1ccc(C)c(-c2nnc3c4ccccc4c(C)nn23)c1 -21.1%
O=C(Nc1ccc(Br)cc1)c1ccc(F)c(S(=O)(=O)N2CCc3ccccc32)c1 -44.6%
O=C(NCc1cccs1)C1CCN(C(=O)N2CCOc3ccc(Cl)cc32)CC1 -6.76%
CC(=O)N1CCc2cc(S(=O)(=O)NC(Cc3ccccc3)C(=O)NCc3ccc(C)cc3)ccc21 (stereo not given) -17.3%
COc1ccc(CCNC(=O)C2CCN(S(=O)(=O)c3c(C)noc3/C=C/c3ccc(C)cc3)CC2)cc1OC -7.97%
Cc1ccc(S(=O)(=O)C(CNC(=O)C(=O)NCc2ccccc2C)c2cccs2)cc1 (stereo not given) -42.5%
Nc1ccn(C[C@@H](CO)OCP(=O)(O)O)c(=O)n1 -2.8% [at 25.1 µM, percent change from vehicle, -100% = no light]
Cc1ccc(Cn2ccnc2SCC(=O)Nc2nc3ccccc3s2)cc1 -0.733%
NS(=O)(=O)c1ccc(NC(=O)C(=O)Nc2ccc3nc4n(c(=O)c3c2)CCCCC4)cc1 -9.3%
Cc1cc(NC(=O)C2CCN(S(=O)(=O)c3cccc4nsnc34)CC2)ccc1Br -29.8%
Cc1cccc(C(=O)N2c3nc(-c4ccco4)nn3C3(CCCCC3)[C@@H]3CCCC[C@@H]32)c1 -46.7%
C#CCOc1ccc(C2CC(=O)Nc3c2c(C)nn3-c2nc(C)cc(C)n2)cc1 (stereo not given) -15.8%
O=c1ccc(-c2ccccc2)nn1Cc1ccc(F)cc1Cl -22.7%
O=C1c2c(O)cc(O)cc2OC(c2ccc(O)c(O)c2)C1O (stereo not given) -0.532%
CCOC(=O)N1CCC2(CC1)OC(=O)C(C)=C2C(=O)NCc1cccc(F)c1 -10.6%
Cc1cccc(NC(=O)CN2C(=O)c3cccc4cccc2c34)c1C -51%
CCCN1CCN(c2ncnc3sc(C(=O)Nc4c(C)cc(C)cc4C)c(C)c23)CC1 10.4%
CCc1ccc(C(=O)c2cn(CC(=O)Nc3ccc(OC)cc3)c3cc4c(cc3c2=O)OCO4)cc1 -23.1%
CCC1CN(S(=O)(=O)c2cc(-c3onc(C)c3C)ccc2C)c2cc(Cl)ccc2O1 (stereo not given) -33.5%
NC(=O)C1(N2CCCCC2)CCN(C(=O)Nc2ccc(F)cc2F)CC1 -1.91%
Cc1ccccc1Cn1c2ccccc2c2cnn(CC(=O)NC3CCC(C)CC3)c(=O)c21 (stereo not given) -10%
COc1cc2c(=O)n(CCC(=O)NCC3CCCO3)c(=O)n(CC(=O)Nc3ccc(C)cc3C)c2cc1OC (stereo not given) 8.14%
COc1cc(NC(=O)C(CC(C)C)NS(=O)(=O)c2ccc3c(c2)CCN3C(C)=O)cc(OC)c1 (stereo not given) -30.9%
CCc1ccc(CNCc2c(C(=O)O)n(Cc3ccc(C)cc3)c3cc(C)ccc23)cc1 -48.4%
Cc1ccc(NC(=O)CC(C)S(=O)(=O)c2ccc3c(c2)NC(=O)CO3)c(Cl)c1 (stereo not given) -8.79%
CC(C)c1ccc2oc(-c3ccc(NC(=O)c4cccc(Br)c4)cc3)nc2c1 -2.19%
CCOc1ccc2nc(N3CCCC(C(=O)Nc4cc(Cl)c(OC)cc4OC)C3)sc2c1 (stereo not given) 5.02%
CN(C)CCCOc1nn(Cc2ccccc2)c2ccccc12 -28.8%
CCCCCCSc1nnc2c(n1)OC(C)Nc1ccc(Br)cc1-2 (stereo not given) -23.7%
CCOC(=O)c1ccccc1NC(=O)COc1ccccc1-c1nnc(-c2ccccc2)o1 -16%
CSc1nn(Cc2cccc(C)c2)c(N)c1S(=O)(=O)c1ccccc1 -28.8%
COc1ccc(CNC(=O)c2ccc(NC(=O)N3CCSc4ccccc43)cc2)cc1 -5.94%
COc1ccc(-n2c(=O)c3c4c(sc3n(Cc3ccccc3C)c2=O)CCCC4)c(OC)c1 -13%
CCc1cccc(NC(=O)C(Cc2ccccc2)NS(=O)(=O)c2cccs2)c1 (stereo not given) -31.3%
CC(=O)c1ccc(Nc2cc(C)nc3nc(Cc4ccccc4)nn23)cc1 -13.8%
COc1ccc(N(CC(=O)NCCc2ccccc2)S(=O)(=O)c2c(C)nn(C)c2C)cc1 -19.5%
NS(=O)(=O)c1ccc(NC(=O)CCC(=O)O)cc1 -2.57%
CCCn1c2ccccc2c2cnn(CC(=O)Nc3cc(OC)c(OC)c(OC)c3)c(=O)c21 -20.2%
CCC1(C)CC(=O)c2c(ccc3oc(C(=O)Nc4ccc(C(C)=O)cc4)c(C)c23)O1 (stereo not given) -9.53%
CCc1nc2ccc(C(=O)N3CCN(c4cccc(Cl)c4)CC3)cc2nc1CC -35.4%
CC(C)c1ccc(Nc2sc(C(=O)c3ccccc3)c(N)c2S(=O)(=O)c2ccccc2)cc1 -15.7%
CC(C)CC(=O)Nc1nnc(S(=O)(=O)N2c3ccccc3CC2C)s1 (stereo not given) -10.7%
CCOc1ccc(C(=O)NCCc2csc(-c3cccc(C)c3)n2)cc1 -9.2%
Cc1ccc(N2CCN(C(=O)Cn3ncc4c([nH]c5ccc(C)cc54)c3=O)CC2)c(C)c1 -5.72%
COc1cc2c(cc1OC)C(CC(=O)O)N(C(=O)Nc1cc(OC)c(OC)c(OC)c1)CC2 (stereo not given) 0.133%
CCc1ccc(C2=NN(CCC(=O)NCCc3ccccc3)C(=O)CC2)cc1 -8.17%
COc1ccc2c(c1)c1c(c(=O)n(-c3cccc(C)c3)c(=O)n1CC(=O)NCCC1=CCCCC1)n2C -9.31%
COc1ccccc1Nc1nc(-c2ccccc2)c(CC(=O)O)s1 7.51%
CCOC(=O)c1c(-c2ccc(OC)c(OC)c2)csc1NC(=O)c1ccccc1F -6.5%
Cc1cccc(CNS(=O)(=O)c2ccc(-c3coc(C)n3)cc2)c1 -30.8%
Cc1ccc2nc3c(cc(C(=O)NC4CCCC4)c(=N)n3C(C)C)c(=O)n2c1 21.9%
CCC(Nc1ccc(-c2nc(-c3cccnc3)no2)cc1[N+](=O)[O-])c1ccccc1 (stereo not given) 3.8%
O=c1c2cccnc2n(Cc2cccc(F)c2)c(=O)n1Cc1ccc(F)cc1 -35.5%
Cc1ccccc1OCC(=O)Nc1ccc2nc(SCC(=O)N3CCCC3)sc2c1 -5.93%
O=C1Cc2cc(S(=O)(=O)Nc3ccc(OC(F)(F)F)cc3)cc3c2N1CCC3 -27.1%
COc1ccc(S(=O)(=O)c2nnn(-c3cccc(Cl)c3)c2N)cc1 -35%
CCOC(=O)c1cc(-c2ccc(OC)c(S(=O)(=O)N3CCN(c4ccccc4)CC3)c2)on1 -18.4%
CCOCCOC(=O)c1ccc2c(c1)N(Cc1ccccc1C#N)C(=O)c1ccccc1S2(=O)=O 0.322%
CCN(c1ccccc1)S(=O)(=O)c1ccc(NC(=O)c2nc(S(C)(=O)=O)ncc2Cl)cc1 -96.8%
CCc1ccc(C(=O)COC(=O)C(NC(=O)C2CCC(C)CC2)C(C)C)cc1 (stereo not given) -2.24%
CCOc1ccc(CCNC(=O)CCCn2c(=O)c3cccn3c3cccnc32)cc1 -6.57%
COc1cc(CNC(=O)c2cnc3c(-c4cccc(C)c4)c(C)nn3c2C)cc(OC)c1OC -20.6%
COc1ccc(-c2cc3ccc(O)c(CN4CCN(C)CC4)c3oc2=O)cc1OC 2.63%
O=C(NC1CC(=O)N(c2ccc(Cl)cc2)C1)c1cc2ccccc2o1 (stereo not given) -10.9%
CC(=O)Nc1ccc(Nc2ccc3cc(S(=O)(=O)N4CCCCC4)ccc3n2)cc1 -24.1%
CCCc1ccc(OCC(=O)Nc2sc3c(c2C(=O)OCC)CCC(C(C)(C)C)C3)cc1 (stereo not given) -19.7%
CC(=O)Oc1cc(C(C)C)c(OCCN(C)C)cc1C -5.5%
Nc1cc(=O)nc(SCC(=O)Nc2ccccc2)n1CCc1ccccc1 -2.2%
COC1CCC(N(C(=O)C2CCC(C)CC2)c2cc(C3=CCCCC3)sc2C(=O)O)CC1 (stereo not given) -25.2%
CC1=C(c2ccc(Cl)cc2)S(=O)(=O)N=C1N1CCN(c2cc(C)ccc2C)CC1 -12.7%
COc1ccc(CNC(=O)C(=O)NCC(c2cccnc2)N2CCN(c3ccccc3)CC2)cc1 (stereo not given) -36.2%
